Earlier results in patent US20100015147A1 (priority 2001, published 2010).

Test system: influenza A and B viruses
Settings: cited from earlier work

| SMILES | effect on virus replication |
| --- | --- |
| CC(=O)N[C@H]1[C@H]([C@H](O)[C@H](O)CO)OC(C(=O)O)=C[C@@H]1N=C(N)N [zanamivir] | inhibit replication of both influenza A and B viruses |
| CCOC(=O)C1=C[C@@H](OC(CC)CC)[C@H](NC(C)=O)[C@@H](N)C1 [oseltamivir] | inhibit replication of both influenza A and B viruses |
